{"source": "PubChem BioAssay AID1347165", "about": "(National Center for Advancing Translational Sciences (NCATS), 2019)", "note": "In all, about 220,000 compounds went through this assay and about 5,700 (2.6%) were called active. The shares of active, inactive and inconclusive entries below differ from those in the screen. Calls follow the shape of the dose curve; as a rule, active = well fitted inhibition curve with a large enough effect; inconclusive = small, poorly fitted or top-dose-only effect; inactive = no such curve, though single readings can be large or run the other way. Where the call is inconclusive, the potency comes from a doubtful curve fit. Potency is read from the fitted curve at half-maximal effect; tags tell the direction and shape of the fitted curve.", "data": [{"target": "Lysine-specific demethylase 5B (Homo sapiens) (UniProt Q9UGL1)", "sequence (Q9UGL1 whole entry, looked up)": "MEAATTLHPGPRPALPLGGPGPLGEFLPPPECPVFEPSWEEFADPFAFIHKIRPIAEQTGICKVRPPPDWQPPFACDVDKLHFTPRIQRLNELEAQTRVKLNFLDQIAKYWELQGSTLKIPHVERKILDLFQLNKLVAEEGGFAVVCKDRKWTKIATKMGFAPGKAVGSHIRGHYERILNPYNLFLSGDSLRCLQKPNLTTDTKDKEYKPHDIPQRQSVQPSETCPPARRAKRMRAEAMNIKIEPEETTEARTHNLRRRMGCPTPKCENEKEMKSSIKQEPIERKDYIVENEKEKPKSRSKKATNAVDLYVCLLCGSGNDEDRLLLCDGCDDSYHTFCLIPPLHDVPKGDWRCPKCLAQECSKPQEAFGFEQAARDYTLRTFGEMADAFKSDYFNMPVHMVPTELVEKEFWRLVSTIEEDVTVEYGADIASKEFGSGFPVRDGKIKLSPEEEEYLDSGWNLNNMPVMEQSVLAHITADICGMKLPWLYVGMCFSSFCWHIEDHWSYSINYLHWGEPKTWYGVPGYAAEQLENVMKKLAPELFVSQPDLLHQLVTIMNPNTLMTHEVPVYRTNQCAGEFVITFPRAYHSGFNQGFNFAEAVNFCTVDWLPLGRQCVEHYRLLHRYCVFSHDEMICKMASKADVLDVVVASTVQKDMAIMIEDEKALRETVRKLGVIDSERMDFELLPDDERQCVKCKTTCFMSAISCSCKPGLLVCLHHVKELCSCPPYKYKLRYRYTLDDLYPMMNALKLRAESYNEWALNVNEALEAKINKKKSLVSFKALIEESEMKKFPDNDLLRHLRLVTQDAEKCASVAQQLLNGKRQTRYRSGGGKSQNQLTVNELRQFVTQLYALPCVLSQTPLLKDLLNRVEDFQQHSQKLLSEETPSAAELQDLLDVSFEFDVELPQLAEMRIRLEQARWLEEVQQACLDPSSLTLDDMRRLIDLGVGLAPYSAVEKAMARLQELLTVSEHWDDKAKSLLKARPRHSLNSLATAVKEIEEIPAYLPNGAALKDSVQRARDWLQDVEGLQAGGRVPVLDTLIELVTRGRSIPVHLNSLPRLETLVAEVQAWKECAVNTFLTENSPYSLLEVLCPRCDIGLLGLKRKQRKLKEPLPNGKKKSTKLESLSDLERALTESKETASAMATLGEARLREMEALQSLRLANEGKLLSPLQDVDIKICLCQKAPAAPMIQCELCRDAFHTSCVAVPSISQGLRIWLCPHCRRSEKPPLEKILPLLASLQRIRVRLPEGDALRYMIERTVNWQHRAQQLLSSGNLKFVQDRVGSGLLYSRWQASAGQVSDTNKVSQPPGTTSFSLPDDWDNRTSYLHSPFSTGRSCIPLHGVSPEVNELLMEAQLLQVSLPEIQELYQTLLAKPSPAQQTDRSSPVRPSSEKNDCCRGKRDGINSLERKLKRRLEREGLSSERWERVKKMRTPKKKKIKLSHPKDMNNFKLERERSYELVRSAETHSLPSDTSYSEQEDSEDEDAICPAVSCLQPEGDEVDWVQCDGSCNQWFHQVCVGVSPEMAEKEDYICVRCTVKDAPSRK", "experiment": "Primary screen for KDM5B Histone Demethylases FDH-coupled qHTS; also: nearly all actives have a fitted effect of over 70% in size", "conditions": "FDH-coupled NADH fluorescence (FDH is formaldehyde dehydrogenase); series mostly up to 57.7 µM", "in_short": "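Compound dilutions met 200 nM (final) KDM5BΔAP for 10 min at room temperature before substrate addition. The substrate mix held 12.5 µM H3K4me3 with cofactors 25 µM α-ketoglutarate and 50 µM Fe²⁺. NADH signal gain over 30 min defined activity.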", "values": [{"compound": "COC(=O)CSc1sc(=O)sc1SC", "Potency": "inactive"}, {"compound": "O=C(CSc1n[nH]c(-c2ccccc2)n1)N1CCCC1c1ccc2c(c1)OCCO2", "note": "(stereo not given)", "Potency": "inactive"}, {"compound": "CCOCCCn1c(=NC(=O)c2ccco2)c(C(=O)OCC)cc2c(=O)n3cccc(C)c3nc21", "Potency": "inconclusive: 22.4 µM [inhibitor, partial curve, poor fit]"}, {"compound": "CC(=O)Nc1ccc(NC(=O)c2cccc(CN3CCCC(C#N)C3)c2)cc1", "note": "(stereo not given)", "Potency": "inactive"}, {"compound": "COCCc1noc(-c2ccc(N(C)CCc3cnn(C)c3)nc2)n1", "Potency": "inconclusive: 25.1 µM [inhibitor, single point]"}, {"compound": "CCCCn1c(SCC(=O)Nc2ccc3c(c2)OCCO3)nc2c(-c3ccccc3)c[nH]c2c1=O", "Potency": "inactive"}, {"compound": "Cc1cccc(C(=O)Nc2scc(-c3ccc(Br)cc3)c2C(=O)O)c1", "Potency": "inconclusive: 25.1 µM [inhibitor, single point]"}, {"compound": "Cc1cc(C)c2[nH]c(C(=O)N3CCN(Cc4ccccc4)C(=O)C3C)c(C)c2c1", "note": "(stereo not given)", "Potency": "inconclusive: 10 µM [inhibitor, partial curve, poor fit]"}, {"compound": "CCN(CC)c1ccc(NC(=O)CN2C(=O)c3cccnc3Oc3ccccc32)c(C)c1", "Potency": "inconclusive: 15.8 µM [inhibitor, partial curve, poor fit]"}, {"compound": "CNC(=O)N1C[C@@H](CN(C)C)[C@H](NS(=O)(=O)c2cc(F)ccc2C)C1", "Potency": "inconclusive: 22.4 µM [inhibitor, single point]"}, {"compound": "Cc1oc(C(O)c2ccccc2)nc1C(=O)Nc1ccc(C(=O)Nc2ccccc2)cc1", "note": "(stereo not given)", "Potency": "inconclusive: 35.5 µM [inhibitor, single point]"}, {"compound": "Cc1ccc(/C=C/c2onc(C)c2S(=O)(=O)N2CCC(C(=O)NCc3ccco3)CC2)cc1", "Potency": "inconclusive: 1.78 µM [inhibitor, full curve, poor fit]"}, {"compound": "CCOc1ccccc1NC(=O)c1cc2c(N3CCSCC3)nc(C)cn2n1", "Potency": "active: 28.2 µM"}, {"compound": "O=C(O)CCC1NC(=O)N(CCc2c[nH]c3ccc(F)cc23)C1=O", "note": "(stereo not given)", "Potency": "inactive"}, {"compound": "COc1cc(OC)cc(C(=O)Nc2ccc3oc(-c4ccccc4F)cc(=O)c3c2)c1", "Potency": "inactive"}, {"compound": "O=c1cc(CN2CCN(CCO)CC2)c2cc(O)ccc2o1", "Potency": "inactive"}, {"compound": "Cc1ccc(-c2csc3ncn(CC(=O)c4cc(C)n(C5CC5)c4C)c(=O)c23)s1", "Potency": "inactive"}, {"compound": "CC(C)(C)c1ccc(-c2nnc(-c3ccccc3NC(=O)c3cccc(C(F)(F)F)c3)o2)cc1", "Potency": "inconclusive: 39.8 µM [inhibitor, single point]"}, {"compound": "O=C(NCc1cccc(F)c1)c1nc2c(o1)CCN(Cc1cccc(F)c1F)CC2", "Potency": "inconclusive: 31.6 µM [inhibitor, single point]"}, {"compound": "CC(C)C(=O)Nc1ccc(C2(C(=O)NC3CC3)CCCCC2)cc1", "Potency": "inactive"}, {"compound": "COc1ccc(N2CCCCS2(=O)=O)cc1S(=O)(=O)N(C)CCc1ccncc1", "Potency": "inactive"}, {"compound": "CCOc1ccccc1NC(=O)c1cc2n(n1)CC(c1ccc(Cl)cc1)OC2", "note": "(stereo not given)", "Potency": "active: 22.4 µM"}, {"compound": "CCC(=O)Nc1ccccc1-c1nnc(SCC(=O)Nc2cc(Cl)ccc2Cl)[nH]c1=O", "Potency": "inconclusive: 35.5 µM [inhibitor, single point]"}, {"compound": "CCn1c(CN2CCCCC2)nc2cc(NC(=O)COc3ccc(C(C)(C)C)cc3)ccc21", "Potency": "inconclusive: 22.4 µM [inhibitor, single point]"}, {"compound": "Cn1cc([C@@H](NC(=O)c2ccc3c(c2)CCCC3)C2CC(O)C2)cn1", "note": "(stereo not given in full)", "Potency": "inactive"}, {"compound": "Cc1cc(Nc2ccccc2)n2nc(C)c(-c3ccccc3)c2n1", "Potency": "inconclusive: 28.2 µM [inhibitor, partial curve, poor fit]"}, {"compound": "COc1ccc(S(=O)(=O)Oc2ccc3oc(=O)cc(-c4cc5cccc(OC)c5o4)c3c2)cc1", "Potency": "inconclusive: 1.78 µM [inhibitor, full curve, poor fit]"}, {"compound": "CONC(=O)COc1ccc(C(C)C)c(C)c1", "Potency": "inactive"}, {"compound": "COc1cc(-c2onc(C)c2C(=O)NCCCc2ccccc2)cc(OC)c1OC", "Potency": "inconclusive: 31.6 µM [inhibitor, partial curve, poor fit]"}, {"compound": "CCC(C)[C@H](N)c1nnc(SCc2ccc(Cl)c(Cl)c2)o1", "note": "(stereo not given in full)", "Potency": "inconclusive: 8.91 µM [inhibitor, partial curve, poor fit]"}, {"compound": "O=C(O)C[C@@H]1CCN(Cc2ccccc2O)C[C@@H]1CCN1C[C@@H]2C[C@H](C1)c1cccc(=O)n1C2", "Potency": "inconclusive: 12.6 µM [inhibitor, partial curve, poor fit]"}, {"compound": "CC(C)Oc1ccc(/C(O)=C2\\C(=O)C(=O)N(c3nccs3)C2c2ccc(C(C)C)cc2)cc1", "note": "(stereo not given)", "Potency": "inactive"}, {"compound": "Cc1oc(-c2cccc(Br)c2)nc1Cn1c(SCc2cccc(F)c2)nc2cccnc21", "Potency": "inconclusive: 2.51 µM [inhibitor, full curve, poor fit]"}, {"compound": "CC(C)NC(=O)NC1CC2(CCN(Cc3ccc(O)cc3)CC2)c2ccccc21", "note": "(stereo not given)", "Potency": "inconclusive: 70.8 µM [inhibitor, single point]"}, {"compound": "O=C(CCC1N=C2c3ccccc3N=C(SCc3cccc(Cl)c3)N2C1=O)NCCc1ccccc1", "note": "(stereo not given)", "Potency": "inconclusive: 31.6 µM [inhibitor, partial curve, poor fit]"}, {"compound": "CN(CC[C@H]1CN(C(=O)C(C)(C)C)CC[C@H]1CC(=O)O)c1ccccc1", "Potency": "inconclusive: 28.2 µM [inhibitor, partial curve, poor fit]"}, {"compound": "Cc1ccncc1-c1c(C)nn2c1N(Cc1cccc(O)c1)CCC2", "Potency": "inconclusive: 28.2 µM [inhibitor, single point]"}, {"compound": "COc1ccc(NC(=O)CSc2cn(CCNC(=O)c3ccc(OC)cc3)c3ccccc23)cc1", "Potency": "inconclusive: 39.8 µM [inhibitor, single point]"}, {"compound": "COCC1CN(C2CCC2)CC12CCN(C(=O)Cc1ccccc1F)CC2", "note": "(stereo not given)", "Potency": "inconclusive: 17.8 µM [inhibitor, single point]"}, {"compound": "Cc1nc2c(NC3CCN(C(=O)c4cccn4C)CC3)cccn2n1", "Potency": "active: 31.6 µM"}, {"compound": "COc1cc(OC)c2c(C)c(CC(=O)Nc3ccc(CCO)cc3)c(=O)oc2c1", "Potency": "inconclusive: 12.6 µM [inhibitor, partial curve, poor fit]"}, {"compound": "COc1cccc(/C=C(\\C#N)C(=O)Nc2ccc(NC(C)=O)cc2)c1OC", "Potency": "inconclusive: 25.1 µM [inhibitor, partial curve, poor fit]"}, {"compound": "Cc1cccc(OCC(=O)N2CCC3(CC2)CN(c2ncccn2)CC3CO)c1", "note": "(stereo not given)", "Potency": "active: 20 µM"}, {"compound": "CCOCC(=O)N1CCC2(CC1)CN(Cc1ccccc1)CC2CO", "note": "(stereo not given)", "Potency": "inconclusive: 39.8 µM [inhibitor, single point]"}, {"compound": "COc1cc(/C=C(/C#N)C(=O)c2cccc(C)c2)cc(Cl)c1O", "Potency": "inconclusive: 39.8 µM [inhibitor, partial curve, poor fit]"}, {"compound": "Cc1ccc(C(=O)OCc2ccc(C#N)cc2)cc1O", "Potency": "inactive"}, {"compound": "COc1ccc(CN2C[C@H]3CN(S(=O)(=O)c4ccc(OC)cc4)CCN3C2=O)cc1", "Potency": "inactive"}, {"compound": "CNC(=O)NC(=O)C(C)Sc1nnc(-c2ccccc2Cl)n1-c1cccc(C(F)(F)F)c1", "note": "(stereo not given)", "Potency": "inactive"}, {"compound": "CC(C)c1ccc(CN2CCC3OCCN(c4ccccc4)C(=O)C3C2)cc1", "note": "(stereo not given)", "Potency": "inactive"}, {"compound": "CCc1cccc(C)c1NC(=O)CN1C(=O)c2cccc3cccc1c23", "Potency": "inconclusive: 22.4 µM [inhibitor, partial curve, poor fit]"}, {"compound": "O=C1C(OCC2CC2)C2(CCOCC2)N1C1CCNCC1", "note": "(stereo not given)", "Potency": "inactive"}, {"compound": "CCOc1cc(/C=C(\\C#N)C(=O)Nc2ccc(OC)cc2)ccc1OCc1cc(=O)n2nc(CC)sc2n1", "Potency": "inconclusive: 25.1 µM [inhibitor, partial curve, poor fit]"}, {"compound": "Cc1ccc(NC(=O)C(Nc2ccc3oc(C)nc3c2)c2ccccc2)cc1", "note": "(stereo not given)", "Potency": "inconclusive: 25.1 µM [inhibitor, single point]"}, {"compound": "O=C(NC1CC1)c1nc(-c2cccc(F)c2)c2cnccn12", "Potency": "inactive"}, {"compound": "O=C(OCc1ccccc1Br)c1cc2ccccc2[nH]1", "Potency": "inconclusive: 39.8 µM [inhibitor, single point]"}, {"compound": "CCOC(=O)c1cc2n(n1)CC(C)(C(=O)NC1CCCC1)N(c1ccc(C)c(F)c1)C2=O", "note": "(stereo not given)", "Potency": "inactive"}, {"compound": "Cc1ccc(CCCN2CCCC(COc3ccccc3C(=O)N3CCCCC3)C2)o1", "note": "(stereo not given)", "Potency": "inconclusive: 22.4 µM [inhibitor, partial curve]"}, {"compound": "CC(=O)c1ccc(C(=O)N(C)Cc2ccncc2)s1", "Potency": "inactive"}, {"compound": "COCCN1C(=O)c2ccccc2C(C(=O)Nc2nnc(CC(C)C)s2)C12CCCC2", "note": "(stereo not given)", "Potency": "inactive"}, {"compound": "CCOc1ccccc1Nc1nc2c(S(=O)(=O)c3ccc(C)cc3)nnn2c2ccsc12", "Potency": "inactive"}, {"compound": "COc1ccc(C=O)cc1OCc1ccc(F)cc1Cl", "Potency": "inactive"}, {"compound": "CCCCN(C)CCNC(=O)c1cc(-c2ccc(Cl)s2)nc2ccccc12", "Potency": "inconclusive: 7.08 µM [inhibitor, partial curve, poor fit]"}, {"compound": "Cc1cc2cc(C(=O)N3CCN(c4ncccc4C#N)CC3)ccc2o1", "Potency": "active: 28.2 µM"}, {"compound": "Cn1c([C@H]2CCN(C3CCCCC3)C2)nc2ccccc21", "Potency": "inconclusive: 39.8 µM [inhibitor, single point]"}, {"compound": "CC(C)C(CCNC1CCN(C)CC1)c1ccc(Cl)cc1", "note": "(stereo not given)", "Potency": "inconclusive: 28.2 µM [inhibitor, partial curve, poor fit]"}, {"compound": "Cc1cnc(C2CC2)n1C1CCCN(C(=O)c2nn(C)c3ccccc23)C1", "note": "(stereo not given)", "Potency": "inactive"}, {"compound": "Cc1noc(-c2cn(C3CCN(C(=O)c4ccc(C)s4)C3)nn2)n1", "note": "(stereo not given)", "Potency": "inactive"}, {"compound": "C#CCNC(=O)c1nc(-c2cccc(C(F)(F)F)c2)c2cnccn12", "Potency": "active: 31.6 µM"}, {"compound": "CCC(C(=O)NCc1ccc(SC)cc1)n1nc(C)c2c(C)n(-c3ccccc3)nc2c1=O", "note": "(stereo not given)", "Potency": "inactive"}, {"compound": "O=C(COC(=O)C12CC3CC(CC(O)(C3)C1)C2)Nc1ccc([N+](=O)[O-])cc1Cl", "Potency": "inactive"}]}]}
